{"source": "PubChem BioAssay AID504333", "about": "(National Center for Advancing Translational Sciences (NCATS), 2011)", "note": "Hit rate of the full screen: of about 360,000 compounds, about 16,000 (4.4%) were called active. The inconclusive results got no clear call from the source; some entries with a clear call stand among them for comparison. Calls come from the whole dose curve; as a rule, active = well fitted inhibition curve with a large enough effect; inconclusive = small, poorly fitted or top-dose-only effect; inactive = no such curve, though single readings can be large or run the other way. A potency beside an inconclusive call is a rough fit, not a confirmed value. Potency is the fitted concentration of half-maximal effect; tags give direction and shape of the fitted curve."}
{"biological_target": "Bromodomain adjacent to zinc finger domain protein 2B (Homo sapiens) (UniProt Q9UIF8)", "sequence (Q9UIF8 whole entry, looked up, the tested form may be a part)": "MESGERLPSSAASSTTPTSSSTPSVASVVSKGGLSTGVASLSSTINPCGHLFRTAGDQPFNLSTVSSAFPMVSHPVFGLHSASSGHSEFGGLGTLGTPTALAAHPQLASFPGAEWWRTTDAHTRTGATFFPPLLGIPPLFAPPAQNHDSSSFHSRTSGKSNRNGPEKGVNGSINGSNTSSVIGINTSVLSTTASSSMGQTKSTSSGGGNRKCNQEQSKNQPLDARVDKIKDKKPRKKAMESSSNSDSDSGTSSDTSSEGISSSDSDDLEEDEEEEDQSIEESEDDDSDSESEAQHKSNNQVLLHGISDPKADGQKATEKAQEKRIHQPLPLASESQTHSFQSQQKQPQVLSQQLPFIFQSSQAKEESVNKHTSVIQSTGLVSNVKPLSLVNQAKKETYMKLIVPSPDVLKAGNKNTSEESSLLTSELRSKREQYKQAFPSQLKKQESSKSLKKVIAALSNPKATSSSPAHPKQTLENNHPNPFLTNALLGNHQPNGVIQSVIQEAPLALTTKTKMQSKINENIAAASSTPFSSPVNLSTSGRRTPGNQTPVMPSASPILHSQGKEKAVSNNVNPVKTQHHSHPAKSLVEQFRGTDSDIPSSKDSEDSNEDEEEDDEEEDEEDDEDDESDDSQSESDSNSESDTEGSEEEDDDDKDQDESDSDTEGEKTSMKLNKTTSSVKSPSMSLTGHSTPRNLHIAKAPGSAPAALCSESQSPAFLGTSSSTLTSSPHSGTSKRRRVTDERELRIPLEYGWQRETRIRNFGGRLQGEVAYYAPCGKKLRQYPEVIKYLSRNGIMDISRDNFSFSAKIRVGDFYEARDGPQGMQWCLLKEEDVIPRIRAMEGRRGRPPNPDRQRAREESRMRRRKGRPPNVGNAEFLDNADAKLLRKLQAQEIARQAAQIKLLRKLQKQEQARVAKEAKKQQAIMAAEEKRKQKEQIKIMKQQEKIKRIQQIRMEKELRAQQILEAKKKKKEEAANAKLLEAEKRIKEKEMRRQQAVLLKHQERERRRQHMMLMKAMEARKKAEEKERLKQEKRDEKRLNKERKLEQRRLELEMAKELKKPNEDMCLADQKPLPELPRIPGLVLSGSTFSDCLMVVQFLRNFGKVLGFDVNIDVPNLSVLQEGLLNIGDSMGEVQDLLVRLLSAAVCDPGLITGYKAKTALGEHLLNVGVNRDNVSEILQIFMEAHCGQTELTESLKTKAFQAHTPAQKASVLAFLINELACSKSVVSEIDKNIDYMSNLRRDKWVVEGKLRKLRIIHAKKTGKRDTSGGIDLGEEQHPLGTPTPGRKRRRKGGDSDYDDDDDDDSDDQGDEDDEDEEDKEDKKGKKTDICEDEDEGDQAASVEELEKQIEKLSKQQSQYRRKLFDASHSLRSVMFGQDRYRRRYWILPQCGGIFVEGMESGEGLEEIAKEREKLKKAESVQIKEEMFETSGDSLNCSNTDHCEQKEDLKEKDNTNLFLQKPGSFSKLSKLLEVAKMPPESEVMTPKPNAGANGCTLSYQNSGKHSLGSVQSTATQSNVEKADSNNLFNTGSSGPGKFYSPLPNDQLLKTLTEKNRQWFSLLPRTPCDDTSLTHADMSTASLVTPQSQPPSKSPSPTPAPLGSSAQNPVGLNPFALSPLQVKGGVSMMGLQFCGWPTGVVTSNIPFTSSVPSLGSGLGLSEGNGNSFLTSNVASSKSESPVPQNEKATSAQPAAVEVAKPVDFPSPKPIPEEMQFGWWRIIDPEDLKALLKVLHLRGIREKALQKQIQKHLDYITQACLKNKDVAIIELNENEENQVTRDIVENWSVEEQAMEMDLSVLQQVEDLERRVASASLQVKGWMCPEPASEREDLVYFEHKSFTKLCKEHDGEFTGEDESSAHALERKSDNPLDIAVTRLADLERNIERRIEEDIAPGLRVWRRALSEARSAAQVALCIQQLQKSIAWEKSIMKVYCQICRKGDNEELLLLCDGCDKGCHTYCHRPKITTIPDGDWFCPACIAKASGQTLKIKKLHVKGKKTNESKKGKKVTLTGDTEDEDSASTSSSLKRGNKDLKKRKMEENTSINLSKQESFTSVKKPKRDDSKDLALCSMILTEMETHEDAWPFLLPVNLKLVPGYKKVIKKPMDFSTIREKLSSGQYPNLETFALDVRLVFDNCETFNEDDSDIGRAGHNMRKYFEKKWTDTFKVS", "assay": "qHTS Assay for Inhibitors of BAZ2B; note: nearly all actives have a fitted effect of over 60% in size", "conditions": "AlphaScreen BAZ2B-H3K14Ac peptide displacement; series mostly up to 114 µM", "procedure,_shortened": "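Inhibition is scored as reduced AlphaScreen emission. The BAZ2B/b-H3(5-23)K14Ac complex (50 nM each) in PBS pH 7.4, 0.01% Tween-20 meets compound (up to 110 uM) for 30 min at RT before bead addition.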"}
{"smiles": "COc1cc(/C=C2\\SC(=Nc3ccccc3OC)NC2=O)ccc1O", "Potency": "inconclusive: 79.4 µM [inhibitor, single point]"}
{"smiles": "Cc1ccccc1C(=O)Nc1ccnn1C1CCN(Cc2c(C)n(C)c3ccccc23)CC1", "Potency": "inconclusive: 70.8 µM [inhibitor, single point]"}
{"smiles": "COc1ccc(OC)c(NC(=O)CCCOc2cc(=O)n(C)c3ccccc23)c1", "Potency": "inconclusive: 79.4 µM [inhibitor, single point]"}
{"smiles": "CCOc1ccc(N(C(C)C(=O)N2CCCC2)S(C)(=O)=O)cc1", "note": "(stereo not given)", "Potency": "inactive"}
{"smiles": "Nc1scc2c(C(=O)N/N=C/c3ccc(Cl)cc3)nn(-c3ccccc3)c(=O)c12", "Potency": "inconclusive: 89.1 µM [inhibitor, single point]"}
{"smiles": "CC(C)(C)c1ccc(Cn2nnc3c(=O)[nH]c(C4CCN(C(=O)c5ccco5)CC4)nc32)cc1", "Potency": "inconclusive: 79.4 µM [inhibitor, partial curve]"}
{"smiles": "Cc1[nH]c2ccccc2c1C1(O)C(=O)Nc2ccc(Cl)cc21", "note": "(stereo not given)", "Potency": "inconclusive: 89.1 µM [inhibitor, single point]"}
{"smiles": "O=C(O)CN1C(=O)/C(=C\\c2ccccc2OCc2ccc(Cl)cc2Cl)SC1=S", "Potency": "inconclusive: 28.2 µM [inhibitor, single point]"}
{"smiles": "O=C(O)c1ccc(-n2c(=O)c3ccccc3c3ccccc3c2=O)cc1", "Potency": "active: 89.1 µM"}
{"smiles": "CCc1ccccc1-n1nnc(-c2nc(-c3ccccc3F)no2)c1C", "Potency": "inactive"}
{"smiles": "CCn1c(CC(=O)Nc2ccc(F)cc2)nnc1SCC(=O)Nc1nncs1", "Potency": "inactive"}
{"smiles": "COc1cc(OC)c(NC(C)C(=O)NCc2ccccc2)cc1Cl", "note": "(stereo not given)", "Potency": "inconclusive: 50.1 µM [inhibitor, partial curve]"}
{"smiles": "COc1ccc2c(c1)CC(C(=O)Nc1c(C)cc(C)cc1C)CO2", "note": "(stereo not given)", "Potency": "inactive"}
{"smiles": "CCC1(c2ccc(F)cc2)NC(=O)N(CC(=O)Nc2cc(C)on2)C1=O", "note": "(stereo not given)", "Potency": "inactive"}
{"smiles": "NS(=O)(=O)c1ccc(NCc2ccccc2OCc2ccc(F)cc2)cc1", "Potency": "active: 56.2 µM"}
{"smiles": "COC(=O)c1c(-c2cccc(OC)c2)csc1N", "Potency": "inconclusive: 70.8 µM [inhibitor, single point]"}
{"smiles": "O=C(N/N=C/c1cc([N+](=O)[O-])ccc1O)c1cccc(N2CCCC2=O)c1", "Potency": "active: 20 µM"}
{"smiles": "N#C/C(=C\\c1ccc(N2CCCC2)c([N+](=O)[O-])c1)c1nc2ccccc2[nH]1", "Potency": "inconclusive: 10 µM [inhibitor, partial curve]"}
{"smiles": "COCc1nnc(NC(=O)c2ccc(S(=O)(=O)N3CCOCC3)cc2)o1", "Potency": "active: 17.8 µM"}
{"smiles": "O=C(Nc1nnc(-c2ccc3c(c2)CCCC3)o1)C1COc2ccccc2O1", "note": "(stereo not given)", "Potency": "inconclusive: 89.1 µM [inhibitor, single point]"}
{"smiles": "COc1ccc(CN(CC2CCCO2)S(=O)(=O)c2ccc(C(=O)O)cc2)cc1OC", "note": "(stereo not given)", "Potency": "inactive"}
{"smiles": "Cc1nn2c(=O)cc(COC(=O)c3ccccc3NC(=O)C3CCCCC3)nc2s1", "Potency": "inactive"}
{"smiles": "CCN1C(=O)/C(=C/c2ccc(N3CCCC3)cc2)NC1=S", "Potency": "active: 25.1 µM"}
{"smiles": "CCOc1ccc(N(CC)S(=O)(=O)N2CCCC(C(=O)NCc3ccccc3OCC)C2)cc1", "note": "(stereo not given)", "Potency": "inactive"}
{"smiles": "COc1cc(-c2cc3n(C)c(C)c(CCC(=O)NC4CCC(C)CC4)c(=O)n3n2)cc(OC)c1OC", "note": "(stereo not given)", "Potency": "inactive"}
{"smiles": "COc1ccc(C(NC(C)=O)c2cc(Cl)c3cccnc3c2O)cc1", "note": "(stereo not given)", "Potency": "inconclusive: 89.1 µM [inhibitor, single point]"}
{"smiles": "O=C(O)Cc1ccc(NC(=O)c2ccc(Cl)c(Cl)c2)cc1", "Potency": "inactive"}
{"smiles": "Cc1ccc(S(=O)(=O)n2cnc3cc([N+](=O)[O-])ccc32)cc1C", "Potency": "inconclusive: 89.1 µM [inhibitor, single point]"}
{"smiles": "COc1cc2c(cc1OC)C(c1ccc(-c3ccc(Cl)c(Cl)c3)o1)=NCC2", "Potency": "inconclusive: 70.8 µM [inhibitor, single point]"}
{"smiles": "COc1ccc(N(CC(=O)NC2CCCC2)S(=O)(=O)c2ccc(NC(C)=O)cc2)cc1", "Potency": "inactive"}
{"smiles": "Cc1ccc(/C=C/C(=O)N2CCc3ccccc32)o1", "Potency": "active: 44.7 µM"}
{"smiles": "CCC(=NCCc1c(C)[nH]c2ccccc12)C1=C(O)CC(c2ccccc2)CC1=O", "note": "(stereo not given)", "Potency": "inconclusive: 35.5 µM [inhibitor, partial curve]"}
{"smiles": "O=C(O)c1ccc(N2C(=O)/C(=C/C=C/c3ccccc3)SC2=S)cc1", "Potency": "inconclusive: 39.8 µM [inhibitor, partial curve]"}
{"smiles": "COc1ccc(C)cc1N=Nc1ccc(O)c2ncccc12", "Potency": "active: 17.8 µM"}
{"smiles": "CC(=O)Nc1ccc(N2C(C(C)=O)=NN(c3ccccc3)C2c2cccs2)cc1", "note": "(stereo not given)", "Potency": "inconclusive: 89.1 µM [inhibitor, single point]"}
{"smiles": "COc1ccc(Cl)cc1NC(=O)C1CCCN(S(=O)(=O)c2ccc3c(c2)CCCC(=O)N3)C1", "note": "(stereo not given)", "Potency": "inactive"}
{"smiles": "Cc1ccc2c(CC(=O)Nc3ccc(S(=O)(=O)N4CCC(C)CC4)cc3)coc2c1", "Potency": "inconclusive: 79.4 µM [inhibitor, single point]"}
{"smiles": "O=C(O)CC(Cc1ccc(Cl)cc1)C(=O)Nc1cc(Cl)ccc1Cl", "note": "(stereo not given)", "Potency": "inactive"}
{"smiles": "COc1ccccc1OCCNC(=O)C1CC(=O)N(c2cccc(SC)c2)C1", "note": "(stereo not given)", "Potency": "inactive"}
{"smiles": "COc1ccc(OCCNC2CCCC2)cc1", "Potency": "inconclusive: 89.1 µM [inhibitor, single point]"}
{"smiles": "Cc1cccc(NC(c2cccc(Cl)c2)c2ccc3cccnc3c2O)n1", "note": "(stereo not given)", "Potency": "active: 10 µM"}
{"smiles": "COc1cccc(C=Nc2cccnc2)c1O", "Potency": "inactive"}
{"smiles": "CNCCCC1Sc2ccccc2Oc2ccccc21", "note": "(stereo not given)", "Potency": "inconclusive: 89.1 µM [inhibitor, single point]"}
{"smiles": "CCn1c(CSc2n[nH]c(N)n2)nc2cc(C(=O)O)ccc21", "Potency": "inconclusive: 89.1 µM [inhibitor, single point]"}
{"smiles": "Nc1c2c(nc3ccc(Br)cc13)N(c1ccccc1)CC2", "Potency": "active: 39.8 µM"}
{"smiles": "Nc1ccc(N=Nc2ccccc2)c2ccccc12", "Potency": "active: 11.2 µM"}
{"smiles": "O=Nc1ccc(O)c2ncccc12", "Potency": "active: 22.4 µM"}
{"smiles": "CCOc1ccc(-n2cc(-c3ccccc3)c3c(=O)[nH]cnc32)cc1", "Potency": "inconclusive: 56.2 µM [inhibitor, partial curve]"}
{"smiles": "CCCCSCCCNC(=O)c1cn(CC)c2ccc(S(=O)(=O)N3CCOCC3)cc2c1=O", "Potency": "inconclusive: 89.1 µM [inhibitor, single point]"}
{"smiles": "Nc1ccc(S(=O)(=O)c2ccc(N)cc2)cc1", "Potency": "inconclusive: 89.1 µM [inhibitor, partial curve, poor fit]"}
{"smiles": "CC1=CC(c2ccccc2)NC(=S)N1", "note": "(stereo not given)", "Potency": "inactive"}
{"smiles": "O=C(c1cccnc1)C1Cc2ccccc2C1=O", "note": "(stereo not given)", "Potency": "inconclusive: 89.1 µM [inhibitor, single point]"}
{"smiles": "O=[N+]([O-])c1ccc(N2CCCCC2)c(Cl)c1N1CCCCC1", "Potency": "inconclusive: 44.7 µM [inhibitor, partial curve]"}
{"smiles": "Cc1cc(C)cc(NC(=O)N(CCC#N)Cc2cccs2)c1", "Potency": "inactive"}
{"smiles": "CC(C)(C)C1CCc2[nH]nc(C(=O)O)c2C1", "note": "(stereo not given)", "Potency": "inconclusive: 79.4 µM [inhibitor, single point]"}
{"smiles": "CNC(=S)Nc1ccc2nc(C)c(C)nc2c1", "Potency": "inconclusive: 89.1 µM [inhibitor, single point]"}
{"smiles": "OCCN1CCN(CCCN2c3ccccc3Sc3ccc(Cl)cc32)CC1", "Potency": "inconclusive: 25.1 µM [inhibitor, partial curve]"}
{"smiles": "C/C(=N\\Nc1cccc2cccnc12)c1ccc(N)cc1", "Potency": "inconclusive: 50.1 µM [inhibitor, partial curve]"}
{"smiles": "Cc1ccc(OCC(=O)NNc2c3ccccc3nc3ccccc23)cc1", "Potency": "inconclusive: 79.4 µM [inhibitor, single point]"}
{"smiles": "O=C(O)CC1NC(=S)N(c2ccccc2)C1=O", "note": "(stereo not given)", "Potency": "inactive"}
{"smiles": "COc1cccc(N2CCN(C(=O)CCn3nc(C)c(S(=O)(=O)N4CCCC4)c3C)CC2)c1", "Potency": "inconclusive: 1.78 µM [inhibitor, full curve, poor fit]"}
{"smiles": "C[C@H](NC(=O)c1[nH]cnc1C(=O)Nc1ccon1)c1ccccc1", "Potency": "inconclusive: 89.1 µM [inhibitor, single point]"}
{"smiles": "O=C(CSc1nc(=O)n(Cc2ccncc2)c2c1CCC2)Nc1ccccc1", "Potency": "inactive"}
{"smiles": "CN(Cc1n[nH]c(=S)n1C)S(=O)(=O)c1ccccc1", "Potency": "inactive"}
{"smiles": "CC(=O)N1CCc2c(sc(NC(=O)c3ccc([N+](=O)[O-])o3)c2C#N)C1", "Potency": "active: 56.2 µM"}
{"smiles": "Nc1c(C(=O)N/N=C/c2ccc(OCc3ccccc3)cc2)cnn1-c1ccccc1", "Potency": "inconclusive: 89.1 µM [inhibitor, single point]"}
{"smiles": "Oc1cccc(Nc2nc(O)c(/C=C3\\C=Nc4ccccc43)s2)c1", "Potency": "inconclusive: 44.7 µM [inhibitor, partial curve]"}
{"smiles": "CCn1c(SCC(=O)NC(=O)NCc2ccco2)nnc1-c1cccs1", "Potency": "inconclusive: 89.1 µM [inhibitor, single point]"}
{"smiles": "Cc1ccccc1C(=O)Nc1cccc(-c2nc3cccnc3s2)c1", "Potency": "inconclusive: 89.1 µM [inhibitor, single point]"}
{"smiles": "O=C(O)COc1ccccc1/C=N/NC(=O)c1cccc(S(=O)(=O)N2CCOCC2)c1", "Potency": "inconclusive: 56.2 µM [inhibitor, partial curve]"}
{"smiles": "COc1cccc(-c2cn(-c3cccc(C(F)(F)F)c3)c(=S)[nH]2)c1", "Potency": "inactive"}
{"smiles": "COc1ccc(C(=O)c2ccsc2N)cc1", "Potency": "inconclusive: 50.1 µM [inhibitor, partial curve]"}
{"smiles": "Cn1c(=O)[nH]c(=O)c2c1nc1n2CCCN1CCc1ccccc1", "Potency": "inconclusive: 89.1 µM [inhibitor, single point]"}
{"smiles": "CCOc1ccccc1N(C)C(=O)c1sc2nc3n(c(=O)c2c1C)CCCC3", "Potency": "active: 50.1 µM"}
{"smiles": "CN(C)c1ccc2c3c(cccc13)C(=O)N(c1ccccc1)C2=O", "Potency": "inactive"}
